Data reported in publication PMC11995724, “Antibiotic target discovery by integrated phenotypic and activity-based profiling of electrophilic fragments” (Cell chemical biology, 2025).
The campaign covered roughly 3,200 compounds. About 110 (3.4%) showed an effect of 50% or more. This is one part of the list.

The compounds below were run on T1, V. cholerae SAD30. Settings: relative growth, OD600, LB; 25 µM; inhibitor.
T1 construct: SAD30
Design: species or system S. aureus MSSA476 (TSB) or V. cholerae SAD30 (LB); 384-well bacterial growth screen at 25 uM, OD600 relative to DMSO control

Question: How did the “% of control remaining” value turn out when `Cc1nnsc1CNC(=O)C(C)Cl` (stereo not drawn) [7-M07, 2-chloro-N-[(4-methyl-1,2,3-thiadiazol-5-yl)methyl]propanamide] was run?
Answer: 79.9604%

Question: With `C=CC(=O)N1CCCC2(CCCOC2)C1` (stereo not drawn) [3-E11, 1-{2-oxa-8-azaspiro[5.5]undecan-8-yl}prop-2-en-1-one] as the compound, how does the “% of control remaining” value read?
Answer: 99.6765%

Question: Which “% of control remaining” value does the source give for `CC(Cl)C(=O)Nc1cccc(Cl)c1Cl` (stereo not drawn) [4-L13, 2-chloro-N-(2,3-dichlorophenyl)propanamide] here?
Answer: 92.8186%

Question: With `Cc1ccc(C=C(C#N)C(=O)NC(C)C)s1` [9-O11, 2-cyano-3-(5-methylthiophen-2-yl)-N-(propan-2-yl)prop-2-enamide] as the compound, how does the “% of control remaining” value read?
Answer: 91.0265%

Question: With `CCc1ccc(CNC(=O)CCl)s1` [6-K05, 2-chloro-N-[(5-ethylthiophen-2-yl)methyl]acetamide] as the compound, how does the “% of control remaining” value read?
Answer: 95.4024%

Question: `COc1ccc(NC(=O)CCl)cc1S(=O)(=O)N1CCOCC1` [4-D15, 2-chloro-N-[4-methoxy-3-(morpholine-4-sulfonyl)phenyl]acetamide] was tested. Which “% of control remaining” value did it give?
Answer: 104.205%

Question: For `O=C(CCl)Nc1nc(-c2ccccc2)cs1` [4-L04, 2-chloro-N-(4-phenyl-1,3-thiazol-2-yl)acetamide], which “% of control remaining” value is on record?
Answer: 106.793%

Question: How did the “% of control remaining” value turn out when `N#CC(=Cc1c(F)cccc1F)C(=O)Nc1ccccc1F` [9-J12, 2-cyano-3-(2,6-difluorophenyl)-N-(2-fluorophenyl)prop-2-enamide] was run?
Answer: 94.2896%

Question: With `C=CC(=O)NCCNC(=O)[C@@]12CC[C@@](C)(C(=O)O1)C2(C)C` [2-J18, N-(2-{[(1S,4R)-4,7,7-trimethyl-3-oxo-2-oxabicyclo[2.2.1]heptan-1-yl]formamido}ethyl)prop-2-enamide] as the compound, how does the “% of control remaining” value read?
Answer: 90.1959%

Question: `Cc1ccc(C=C(C#N)C(=O)Nc2ccccc2C(=O)O)s1` [9-K08, 2-[2-cyano-3-(5-methylthiophen-2-yl)prop-2-enamido]benzoic acid] was tested. Which “% of control remaining” value did it give?
Answer: 78.9259%

Question: For `N#CC(=Cc1ccc2ccccc2c1)C(=O)NC(N)=O` [9-K10, {2-cyano-2-[(naphthalen-2-yl)methylidene]acetyl}urea], which “% of control remaining” value is on record?
Answer: 87.0836%

Question: For `C=CC(=O)N1CC(C)(C)c2cc(Cl)ccc21` [1-L14, 1-(5-chloro-3,3-dimethyl-2,3-dihydro-1H-indol-1-yl)prop-2-en-1-one], which “% of control remaining” value is on record?
Answer: 100.098%

Question: How did the “% of control remaining” value turn out when `O=C(c1cc(=O)[nH]c2ccc([N+](=O)[O-])cc12)N1CCSSCC1` [10-B11, 4-(1,2,5-dithiazepane-5-carbonyl)-6-nitro-1,2-dihydroquinolin-2-one] was run?
Answer: 100.682%

Question: `O=C(CCl)NCCCc1ccccc1` [4-N04, 2-chloro-N-(3-phenylpropyl)acetamide] was tested. Which “% of control remaining” value did it give?
Answer: 112.487%

Question: How did the “% of control remaining” value turn out when `CC(Cl)C(=O)NC1(c2nnc[nH]2)CCC1` (stereo not drawn) [6-F21, 2-chloro-N-[1-(4H-1,2,4-triazol-3-yl)cyclobutyl]propanamide] was run?
Answer: 98.7392%

Question: For `C=CC(=O)N1CCC(C(=O)NCCc2cc[nH]n2)CC1` [3-E07, 1-(prop-2-enoyl)-N-[2-(1H-pyrazol-3-yl)ethyl]piperidine-4-carboxamide], which “% of control remaining” value is on record?
Answer: 104.793%

Question: Which “% of control remaining” value does the source give for `C=CC(=O)NC1CCOc2c(F)cccc21` (stereo not drawn) [1-D05, N-(8-fluoro-3,4-dihydro-2H-1-benzopyran-4-yl)prop-2-enamide] here?
Answer: 90.4335%

Question: `C=CC(=O)Nc1ccc(O)c(C(=O)O)c1` [1-G06, 2-hydroxy-5-(prop-2-enamido)benzoic acid] was tested. Which “% of control remaining” value did it give?
Answer: 95.2167%

Question: Which “% of control remaining” value does the source give for `Cc1ccc(C=C(C#N)C(=O)Nc2cccc3ncccc23)cc1` [9-J05, 2-cyano-3-(4-methylphenyl)-N-(quinolin-5-yl)prop-2-enamide] here?
Answer: 92.5221%

Question: Which “% of control remaining” value does the source give for `O=C(CCl)N1CCCCc2ccc([N+](=O)[O-])cc21` [5-I18, 2-chloro-1-(8-nitro-2,3,4,5-tetrahydro-1H-1-benzazepin-1-yl)ethan-1-one] here?
Answer: 94.3154%

Question: With `C=CC(=O)N1CCC(C(=O)N2CCCC(C3OCCO3)C2)CC1` (stereo not drawn) [2-L16, 1-{4-[3-(1,3-dioxolan-2-yl)piperidine-1-carbonyl]piperidin-1-yl}prop-2-en-1-one] as the compound, how does the “% of control remaining” value read?
Answer: 95.4453%

Question: For `C[C@@H](NC(=O)CCl)c1ccccc1` [6-O20, 2-chloro-N-[(1R)-1-phenylethyl]acetamide], which “% of control remaining” value is on record?
Answer: 94.0373%

Question: For `O=C(CCl)c1c[nH]c2ccccc12` [10-B05, 2-chloro-1-(1H-indol-3-yl)ethan-1-one], which “% of control remaining” value is on record?
Answer: 108.475%

Question: `O=C(CCl)Nc1ccccc1SCc1ccccc1` [4-J05, N-[2-(benzylsulfanyl)phenyl]-2-chloroacetamide] was tested. Which “% of control remaining” value did it give?
Answer: 96.7867%

Question: How did the “% of control remaining” value turn out when `CC(Cl)C(=O)Nc1ccc(N(C)C)cc1.Cl` (stereo not drawn) [5-N04, 2-chloro-N-[4-(dimethylamino)phenyl]propanamide hydrochloride] was run?
Answer: 104.066%

Question: `Cc1ccc(C=C(C#N)C(=O)Nc2cc(Cl)ccc2Cl)s1` [9-E19, 2-cyano-N-(2,5-dichlorophenyl)-3-(5-methylthiophen-2-yl)prop-2-enamide] was tested. Which “% of control remaining” value did it give?
Answer: 84.7723%

Question: With `COc1cccc(NC(=O)C(C#N)=Cc2ccc([N+](=O)[O-])o2)c1` [8-A19, 2-cyano-N-(3-methoxyphenyl)-3-(5-nitrofuran-2-yl)prop-2-enamide] as the compound, how does the “% of control remaining” value read?
Answer: 86.5398%

Question: For `C=CC(=O)NC(Cn1ccnc1)c1ccccc1` (stereo not drawn) [2-M06, N-[2-(1H-imidazol-1-yl)-1-phenylethyl]prop-2-enamide], which “% of control remaining” value is on record?
Answer: 89.4239%

Question: With `C=CC(=O)N(Cc1cc2ccccn2n1)CC1(O)CCCCC1` [1-H15, N-[(1-hydroxycyclohexyl)methyl]-N-({pyrazolo[1,5-a]pyridin-2-yl}methyl)prop-2-enamide] as the compound, how does the “% of control remaining” value read?
Answer: 81.1659%

Question: With `O=C(Cc1cccc(F)c1)N1CCSSCC1` [10-L21, 1-(1,2,5-dithiazepan-5-yl)-2-(3-fluorophenyl)ethan-1-one] as the compound, how does the “% of control remaining” value read?
Answer: 98.8116%
